Experimental data published in PubChem BioAssay AID662 (National Center for Advancing Translational Sciences (NCATS), 2007).
About 1,800 (2.5%) of roughly 71,000 compounds were called active. The shares of active, inactive and inconclusive entries below differ from those in the screen. Calls follow the shape of the dose curve; as a rule, active = well fitted activation curve with a large enough effect in the signal ratio, with a control signal flat (not every such curve was filed as active); inconclusive = small, poorly fitted or top-dose-only effect, or effect the other way, or a change in a side signal; inactive = flat fitted curve, though single readings scatter; the % refers to the signal ratio. Potencies beside an inconclusive call are fits to weak or partial responses and may not hold up.

Assay: Cell signaling CRE-BLA (Fsk stim); as to activity change, negative = inhibition: % of control where 0% means no effect
Details: CHO CRE-bla reporter (cAMP response element driving beta-lactamase), forskolin EC10, beta-lactamase ratio; activity change, negative = inhibition: at 38.2 µM (top of the series) unless noted
How it was run: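 CHO CRE-bla cells, overnight plating in Opti-MEM with 0.5% dialyzed FBS; cpd titration + EC10 NKH 477, 3 h 37 °C; CCF4 2 h RT; ex 405/em 460 vs 530 ratio → %Activity, AC50.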
Potency is read from the fitted curve at half-maximal effect; tags tell the direction and shape of the fitted curve.

| SMILES | Potency | activity change, negative = inhibition |
| --- | --- | --- |
| Oc1ccc(C=NCC2COc3ccccc3O2)cc1 (stereo unspecified) | inconclusive: 0.2 µM [rising, full curve, poor fit] | – |
| COC(=O)c1ccc2c(=O)n(C3CCCCC3)c(SCC#N)nc2c1 | inconclusive: 0.316 µM [rising, partial curve] | – |
| CN(C)c1ccc(CN2CCCC(O)C2)cc1 (stereo unspecified) | – | inconclusive: -8.85% [at 7.6 µM] |
| Cc1ccc(-n2c(SCn3nnc4ccccc4c3=O)nnc2-c2cccnc2)c(C)c1 | – | inconclusive: 28.6% |
| Cc1ccccc1Cn1c(=N)n(CC(=O)c2ccco2)c2ccccc21 | inconclusive: 15.8 µM [rising, partial curve] | – |
| CC(C)NC(=O)NC(=O)COC(=O)Cc1ccsc1 | – | inconclusive: -2.69% |
| CN(C)c1ncc2ncc(=O)n(C)c2n1 | inconclusive: 12.6 µM [rising, partial curve] | – |
| NC(=O)c1cc(-c2ccccc2)nc(N2CCOCC2)n1 | – | inconclusive: -3.47% |
| O=C(COC(=O)c1ccco1)NCc1ccco1 | inconclusive: 15.8 µM [rising, single point] | – |
| CCOC(=O)CNC(=O)C(=O)c1c(O)[nH]c2ccccc12 | – | inconclusive: -23.3% |
| Cn1c(CN2CCOCC2)nnc1SCC(=O)Nc1nccs1 | – | inconclusive: -5.57% |
| CN(C)c1ncc2nc(-c3ccccc3)c(=O)n(CCc3ccccc3)c2n1 | inconclusive: 0.501 µM [rising, full curve] | – |
| O=[n+]1cc(-c2cc3ccccc3o2)n([O-])c2c1CCCC2 | – | inconclusive: -6.19% |
| CCc1nc(NCC2CCCO2)c2oc3ccccc3c2n1 (stereo unspecified) | inconclusive: 5.01 µM [rising, partial curve] | – |
| COC(=O)[C@@]1(Cc2ccc(F)cc2)[C@H]2c3cc(C(=O)N4CCCC4)n(Cc4ccc(Cl)c(C(F)(F)F)c4)c3C[C@H]2CN1C(=O)c1ccccc1 | – | inconclusive: -4.97% |
| COc1cc(-c2nnc(COc3ccc4cc(Br)ccc4c3)o2)cc(OC)c1OC | active: 2.51 µM | – |
| CCCn1c(NCc2ccc(C)o2)nc2ccccc21 | inconclusive: 3.98 µM [falling, single point] | – |
| O=C(CSc1nc2ccccc2[nH]1)N1CCN(c2ccc(F)cc2)CC1 | inconclusive: 0.631 µM [rising, full curve] | – |
| O=S(=O)(CCN1CCN(C(c2ccccc2)c2ccccc2)CC1)C(F)(F)F | inconclusive: 20 µM [falling, single point] | – |
| Cc1cc(NC(=O)NC(=O)c2ccc(F)cc2F)n[nH]1 | – | inconclusive: 15.3% |
| CCCCN(CC)CCNC(=O)c1cc2c(C)nc3ccccc3c2o1 | – | inconclusive: 23% |

| SMILES | Potency | activity change, negative = inhibition |
| --- | --- | --- |
| Cn1c(N2CCCC2)nc2c1c(=O)n(Cc1cccc(F)c1)c(=O)n2C | inconclusive: 3.98 µM [rising, partial curve] | – |
| CC(=O)NC(O)C(=O)c1ccco1 (stereo unspecified) | – | inconclusive: 13.5% |
| CCCn1c(=O)c2ccccc2n2c(SCCOc3ccccc3F)nnc12 | inconclusive: 5.01 µM [rising, partial curve] | – |
| CC1=CC(=O)CC(C)(C)[C@@]1(O)/C=C\C(C)=C\C(=O)O | – | inactive: 12.8% |
| CCOC(=O)c1oc2ccccc2c1CSc1nnc(-c2ccco2)o1 | inconclusive: 10 µM [rising, partial curve] | – |
| Cn1cccc1C(=O)N1CCC2(CCCN(Cc3ccncc3)C2)CC1 | – | inactive: -0.313% |
| COCCNc1nc(-c2ccoc2)nc2ccccc12 | inconclusive: 10 µM [rising, single point] | – |
| CCOC(=O)c1ccccc1Nc1cc(C)nc2nc(C)nn12 | active: 12.6 µM | – |
| CC(=O)Nc1ccc(C(=O)Nc2ccc3c(c2)OCO3)cc1 | – | inconclusive: -29.8% |
| CCN1CCN(CCCNC(=O)c2cn(CCOC)c(=O)c3c2c2ccccc2n3C)CC1 | – | inconclusive: -4% |
| O=C(CCN1C(=O)C2C3C=CC(C3)C2C1=O)N1CCN(c2ccc(F)cc2)CC1 (stereo unspecified) | – | inconclusive: -9.56% |
| O=C(Nc1ccccc1Cl)c1cnccn1 | – | inconclusive: 1.84% |
| Cc1ccc(-c2oc3ncnc(N)c3c2-c2ccc(C)cc2)cc1 | – | inactive: 2.08% |
| CNc1nc(SCc2ccccc2)nc(N2CCOCC2)n1 | inconclusive: 15.8 µM [rising, single point] | – |
| CC(=O)[C@@H]1CC[C@@H]2[C@@H]3C[C@H](C)C4=CC(=O)CC[C@@]4(C)[C@H]3[C@H](O)C[C@]21C | – | inactive: -2.07% [at 17.1 µM] |
| COc1cc(OC)cc(C(=O)N(CN2CCCC2=O)c2ccccc2OC)c1 | – | inactive: 8.2% |
| CCCn1c(-c2ccc(F)cc2)nc2c(NCCCCN(C)C)nc(C)nc21 | – | inactive: 7.51% |
| COc1ccc(NC(=O)COc2nc(N(C)C)nc(N(C)C)n2)cc1 | inconclusive: 12.6 µM [rising, single point] | – |
| C=CCSc1nc2c(c(=O)[nH]c(=O)n2C)n1C(C)C | active: 10 µM | – |
| CCC(C)[C@@H](C(=O)Nc1ccc(OC)c(OC)c1)N1Cc2ccccc2C1=O (stereo partly specified) | inconclusive: 5.01 µM [rising, partial curve] | – |
| CSc1nc2ccc(NS(=O)(=O)c3ccc(Cl)s3)cc2s1 | – | inconclusive: 10.1% |

| SMILES | Potency | activity change, negative = inhibition |
| --- | --- | --- |
| O=C(Nc1nc(-c2ccccc2)cs1)C1CCCN(S(=O)(=O)c2ccccc2)C1 (stereo unspecified) | – | inconclusive: -29.8% |
| Cc1cc(N2CCN(c3cccc(C(F)(F)F)c3)CC2)n2nc(C)nc2n1 | – | inconclusive: 16.1% |
| COc1ccc(-c2nnc(SCC(=O)Nc3ncc(C)s3)n2-c2ccccc2)cc1OC | active: 5.01 µM | – |
| COc1ccc(CC(=O)N2CCN(c3ccccn3)CC2)cc1 | – | inconclusive: -0.277% |
| CCc1ccccc1NS(=O)(=O)c1cc(C)ccc1OC | inconclusive: 6.31 µM [rising, partial curve] | – |
| Cn1nc(-c2ccc(N3CCCCC3)c(NC(=O)c3ccco3)c2)c2ccccc2c1=O | active: 1.58 µM | – |
| CCOC(=O)N1CCC(NC(=O)CSc2cc(=O)n(CC)c3ccccc23)CC1 | inconclusive: 3.98 µM [rising, single point] | – |
| Cc1cccc(-n2c(=O)[nH]c3c(C(N)=O)nc(C(C)C)nc32)c1 | inconclusive: 10 µM [rising, single point] | – |
| COC(=O)c1cc(C)sc1NC(=O)CCCC(=O)O | – | inactive: 3.21% |
| COc1ccc2cc(CN(Cc3cccnc3)S(=O)(=O)c3ccccc3)c(=O)[nH]c2c1 | – | inactive: 2.8% |
| COCC(=O)Nc1nc2n(n1)C(c1ccc(OC)cc1)CC(c1ccc(OC)cc1)N2 (stereo unspecified) | – | inactive: -7.39% |
| Cc1cc(=O)oc(C)c1C(=O)NCCCN1CCN(c2ccc(F)cc2)CC1 | inconclusive: 10 µM [falling, partial curve] | – |
| COc1ccc(NC(=O)c2ocnc2C)cc1OC | inconclusive: 10 µM [rising, single point] | – |
| Cn1c(C(=O)OC(C(=O)NC2CCCC2)c2ccncc2)cc2sccc21 (stereo unspecified) | – | inactive: -5.34% |
| O=C(NCc1cccc(Cl)c1)c1cccnc1 | – | inactive: -0.275% |
| N#CCCn1c(=O)c(-c2cccc(C#N)c2)nc2cnc(Oc3cccc(Cl)c3)nc21 | – | inconclusive: 26.5% |
| Cc1ccc(NC(=O)CC2SCCNC2=O)cc1Cl (stereo unspecified) | – | inconclusive: 10.6% |
| COc1ccc(CC(=O)c2ccccc2C(=O)O)cc1 | – | inactive: -8.52% |
| N[C@@H](C(=O)O)c1cc(O)ccc1Cl | – | inconclusive: -15.6% |
| Oc1c(C(c2cccc(F)c2)N2CCN(Cc3ccccc3)CC2)sc2ncnn12 (stereo unspecified) | – | inconclusive: -24.7% |
| COc1ccc2nc(SCc3nc(N)nc(Nc4ccccc4)n3)[nH]c2c1 | active: 2 µM | – |

| SMILES | Potency | activity change, negative = inhibition |
| --- | --- | --- |
| COc1ccc(CCN(Cc2cc3cccc(C)c3[nH]c2=O)C(=O)N2CCCC2)cc1OC | – | inconclusive: 26.4% |
| Cc1ccccc1N1C(=O)c2sc3nc4c(c(=O)n3c2C1=O)CCC4 | – | inactive: -18.6% |
| C[C@@]12C=CC(=O)C=C1CC[C@H]1[C@H]3CC[C@](O)(C(=O)CO)[C@]3(C)CC(=O)[C@@H]12 | – | inactive: -0.645% [at 17.1 µM] |
| COC(=O)C1CCN(c2cc(=O)n(-c3ccccc3Cl)c(=O)[nH]2)CC1 | inconclusive: 3.98 µM [falling, partial curve] | – |
| O=C(N1CCOCC1)N(Cc1ccccc1)c1ccccn1 | – | inconclusive: 14.6% |
| CCCCn1cnc2c(c(CC#N)nn2-c2ccccc2)c1=N | inconclusive: 3.98 µM [rising, single point] | – |
| O=C(c1cc(F)c(F)cc1Cl)N1CCCCC1 | inconclusive: 0.0501 µM [rising, full curve, poor fit] | – |
| COC(=O)c1ccc(Oc2cc(C)nc(SC)n2)cc1 | inconclusive: 25.1 µM [rising, single point] | – |
| c1ccc(CCn2nnnc2C(c2cccnc2)N2CCN(c3ccccc3)CC2)cc1 (stereo unspecified) | – | inactive: -10.3% |
| COc1ccc(CCNc2c(N)n(Cc3ccccc3)c(=O)[nH]c2=O)cc1OC | inconclusive: 10 µM [rising, partial curve] | – |
| CCCn1c(NC(=O)c2cccc(S(=O)(=O)N3CCCC3)c2)nc2ccccc21 | inconclusive: 10 µM [falling, single point] | – |
| CCOc1ccc(Nc2nc(NCCN3CCOCC3)nc(OC)n2)cc1 | inconclusive: 12.6 µM [rising, single point] | – |
| COc1ccc(C2C(C#N)=C(/N=C/N3CCN(C)CC3)OC3=C2C(=O)CC(C)(C)C3)cc1OC (stereo unspecified) | – | inconclusive: 8.42% |
| O=C(C1CCC1)N1CCc2cc(S(=O)(=O)Nc3ccc4c(c3)OCO4)ccc21 | – | inconclusive: 25.1% |
| COc1cc(S(=O)(=O)N2CCCCCC2)c(OC)cc1Br | – | inactive: -6.42% |
| O=C(CNCc1ccco1)Nc1ccccc1-n1cccc1 | – | inactive: -9.27% |
| COC(=O)c1cc(OC)c(OC)cc1NC(=O)c1ccccc1 | active: 0.398 µM | – |
| C=CCn1c(SCc2nc3ccccc3[nH]2)nnc1-c1ccccn1 | inconclusive: 3.98 µM [rising, partial curve] | – |
